± gives the standard deviation of the averaged measurements. Over roughly 33,000 sequences, “E-score (dimensionless, -0.5 to 0.5)” has its median near -0.046; the highest 2% begin near 0.36. The list shows a part of the results.
Tested on: T1, SpTbr T-box DNA-binding domain (GST fusion)
T1 sequence: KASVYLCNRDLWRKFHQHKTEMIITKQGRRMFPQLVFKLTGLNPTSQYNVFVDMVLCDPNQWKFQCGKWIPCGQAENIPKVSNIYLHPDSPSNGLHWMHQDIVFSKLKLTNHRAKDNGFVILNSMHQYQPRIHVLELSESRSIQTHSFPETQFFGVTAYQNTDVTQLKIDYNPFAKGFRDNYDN
Assay: PBM E-score of 8-mer (E-score (dimensionless, -0.5 to 0.5)); Tbr is Tbrain of the sea star Patiria miniata (Pm) or the sea urchin Strongylocentrotus purpuratus (Sp); higher = stronger binding preference; most listed sequences are background and not binding sites
Conditions: the construct has about 5 more residues each side
Outline: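 Primer extension turned Universal Agilent oligonucleotide arrays double-stranded. They were incubated with 200 nM protein in PBS (pH 7.5); the protein was a GST-fused Tbr T-box DNA-binding domain expressed in BL21 E. coli at 20 °C and purified on glutathione. Every ungapped 8-mer was scored from the scanned, quantified probe intensities, and the Universal PBM Analysis Suite gave each an enrichment E-score averaged over duplicate arrays.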

Sequence | PBM E-score of 8-mer
GATCACGA | 0.0322 ± 0.019
CGCGTAGC | 0.105 ± 0.024
CCCTACGG | -0.16 ± 0.042
GACACTAC | 0.278 ± 0.0049
CTAGAATA | -0.0858 ± 0.03
ATACTCGC | 0.0835 ± 0.039
GAGCACTA | -0.0759 ± 0.012
ATCGCAAA | 0.0887 ± 0.0029
AAGATGGA | -0.272 ± 0.018
AGCGTTGG | 0.0877 ± 0.015
GCTGCCCA | -0.0939 ± 0.011
GCTAATCA | 0.0979 ± 0.045
TATTGCCA | 0.0232 ± 0.0082
GCGCTGGA | -0.0753 ± 0.081
CGAAGTCA | -0.0307 ± 0.014
ATTCGCTC | -0.165 ± 0.089
ACAGCTCC | 0.157 ± 0.0081
GATGTTCC | -0.148 ± 0.054
TACAATCA | -0.097 ± 0.0025
AAATGTAG | -0.136 ± 0.082
ATTCGTAC | -0.00244 ± 0.025
AAGAGATA | -0.0138 ± 0.011
GATCGACA | 0.279 ± 0.0041
CCATTTGA | -0.149 ± 0.051
CGTGCTAA | 0.349 ± 0.0041

Sequence | PBM E-score of 8-mer
AATCTTGT | -0.00257 ± 0.018
GTCGCAGA | -0.0708 ± 0.1
ACCCTCCC | -0.00241 ± 0.053
TACTCCAA | -0.0728 ± 0.031
TCTTCGCA | 0.307 ± 0.036
CTTCAGTC | -0.0612 ± 0.0078
AACGAAGG | -0.222 ± 0.041
ACGTCAAC | 0.0682 ± 0.016
GATCAGGC | -0.0443 ± 0.092
ATTGAGTG | 0.219 ± 0.02
AGTCTAGA | -0.216 ± 0.027
TCCAAGGA | -0.335 ± 0.04
ATATCTGC | -0.0996 ± 0.048
ACGATAAA | 0.0963 ± 0.028
ACGTCCCT | -0.124 ± 0.037
AAAGTAGG | -0.0927 ± 0.032
AGAGGCTG | -0.073 ± 0.087
GTTGACTA | 0.0965 ± 0.0034
ACATGTAA | 0.0603 ± 0.025
GCCTTGGA | -0.173 ± 0.012
AACTCTCT | -0.13 ± 0.018
ACTGCCCG | -0.12 ± 0.018
CTCAAACA | -0.0585 ± 0.013
TAGGCCCA | -0.289 ± 0.052
ACGACAAC | 0.2279 ± 0.0012

Sequence | PBM E-score of 8-mer
ATGTGAAC | 0.203 ± 0.012
AGCGCTTA | 0.176 ± 0.032
TAAATTAA | -0.163 ± 0.05
ATTGCACC | 0.274 ± 0.031
CCTTGATA | -0.0451 ± 0.022
ATATTAAT | -0.209 ± 0.078
ATCTAGCA | 0.111 ± 0.059
GGCGCTTA | 0.0135 ± 0.054
CACCATTA | 0.0463 ± 0.043
ACTGCTTA | -0.0489 ± 0.026
CATCTCGG | -0.188 ± 0.0026
ATATGACG | 0.0665 ± 0.016
ACCACAGA | -0.0948 ± 0.043
AAATCGTC | 0.151 ± 0.056
AGAGCCAG | 0.0237 ± 0.035
AACCACCA | -0.0862 ± 0.013
AACGCTTC | -0.0132 ± 0.036
CTAAAGAA | -0.102 ± 0.072
ACCGCGGG | -0.0515 ± 0.027
AGCCGCAT | -0.0458 ± 0.035
CTCTAGAC | -0.087 ± 0.0047
ACATACTA | 0.029 ± 0.033
ATGAAAAG | 0.0103 ± 0.09
GCAATGGA | -0.19 ± 0.053
ACTACCGG | 0.0217 ± 0.013

Sequence | PBM E-score of 8-mer
AAACAAGT | -0.0768 ± 0.066
CTGGGGCC | -0.254 ± 0.051
AGCCCCGC | -0.114 ± 0.062
AAGTGGCA | 0.338 ± 0.024
GATGCCCC | -0.0507 ± 0.011
CTGCCTCA | 0.057 ± 0.037
GATTAGCA | 0.0309 ± 0.1
TCGCAACA | 0.283 ± 0.0032
ATTGACCA | -0.253 ± 0.027
CGCTAATA | 0.135 ± 0.092
GTTAAACA | 0.0019 ± 0.0036
GCACCCCC | 0.238 ± 0.032
ACCGTGAT | 0.189 ± 0.029
ACCGGGTG | 0.053 ± 0.046
ACCTGACG | 0.218 ± 0.0039
GGGGAACC | -0.174 ± 0.0062
TGGTCACA | 0.252 ± 0.013
CTGACCAA | -0.28 ± 0.0064
AGCAACCT | -0.0355 ± 0.0017
AGCAGTAC | -0.16 ± 0.064
ACCACGTC | 0.0203 ± 0.032
CTCTCGTA | -0.0231 ± 0.063
ACCACATC | 0.0272 ± 0.067
ATGTTGAG | 0.00872 ± 0.024
AACTTTGG | -0.0497 ± 0.0029

Sequence | PBM E-score of 8-mer
GCAATTCC | 0.0755 ± 0.0036
AACAGGTG | 0.364 ± 0.028
CCAAATCG | 0.0669 ± 0.0054
GGGGTACA | -0.26 ± 0.084
ACAATACC | -0.039 ± 0.018
CCTCAGAC | -0.204 ± 0.031
ACCTAATC | -0.0279 ± 0.039
AAAGATAT | 0.0376 ± 0.074
GAATGCCC | -0.162 ± 0.0098
ATGTGGAG | -0.0268 ± 0.17
CACGCCCG | 0.309 ± 0.019
CCAGATTC | -0.108 ± 0.04
TCGCAGCA | 0.101 ± 0.025
GAAACATC | -0.27 ± 0.023
ATTGCGCG | 0.111 ± 0.021
GGAAGCAA | -0.216 ± 0.074
GACACGGC | 0.215 ± 0.041
ATCATTTA | 0.00378 ± 0.029
CATAAGGC | -0.145 ± 0.1
AATACAGT | -0.218 ± 0.019
CTCACGTA | 0.136 ± 0.045
AAGTTTAA | -0.0417 ± 0.0086
AAAGGGTT | -0.219 ± 0.011
CGAACGTC | -0.0242 ± 0.0021
ACATACAA | 0.0194 ± 0.019

Sequence | PBM E-score of 8-mer
GACCTGCA | 0.0202 ± 0.079
AAACCCTG | -0.196 ± 0.037
CACTCGGG | 0.0627 ± 0.043
CCCCAGCG | -0.148 ± 0.02
TACCCCAA | -0.171 ± 0.028
AGGTGCTG | 0.4215 ± 0.0039
AAAATTAG | 0.114 ± 0.057
AACGAGAC | -0.0485 ± 0.1
CATACAAA | -0.165 ± 0.019
CATCCGTC | 0.134 ± 0.057
AGATTGCC | 0.0357 ± 0.058
CGACAATA | 0.149 ± 0.027
TCGCATAA | 0.0493 ± 0.0031
GTGATACA | 0.15 ± 0.021
ATGCCTGA | -0.0882 ± 0.11
ATTAGCCC | -0.179 ± 0.035
CTCCCAAG | -0.152 ± 0.047
GTCCTTCA | -0.144 ± 0.019
AAACTGAA | -0.212 ± 0.088
ACGACCGG | -0.0699 ± 0.0036
AAGGGTTC | -0.299 ± 0.014
ACTTATTG | -0.0815 ± 0.036
ATTATGTG | 0.167 ± 0.057
ATGTCGTC | -0.102 ± 0.031
ACTTCGCC | 0.0093 ± 0.014

Sequence | PBM E-score of 8-mer
CGAGTTCA | 0.11 ± 0.028
AAGGATAC | -0.168 ± 0.066
GGGCCTAA | -0.207 ± 0.025
CCTTTACA | 0.175 ± 0.0068
CCACGATA | 0.0254 ± 0.03
CTCTAATA | -0.254 ± 0.033
ACCTCGTG | 0.232 ± 0.053
AACAGCCA | -0.0169 ± 0.0056
ATTGGAAC | 0.0941 ± 0.034
AATGACCT | -0.138 ± 0.0092
CCATGGAA | -0.245 ± 0.031
GTGTGGAA | 0.3848 ± 0.0012
CTCTGTTA | 0.0595 ± 0.011
CTACATCA | -0.206 ± 0.057
TAGTATCA | -0.00415 ± 0.065
AGGTGATG | 0.3942 ± 0.0033
GAAAGGAA | -0.0545 ± 0.007
GCACTGTA | -0.0342 ± 0.082
CTGACCAG | -0.318 ± 0.053
ATAGACGG | -0.24 ± 0.083
AGCGAGAG | -0.00466 ± 0.01
AGTAGAGG | -0.105 ± 0.033
